# The campaign covered roughly 350,000 compounds. About 9,900 (2.8%) were called active. Inconclusive means that the source gave no clear call. Such entries were picked first, then a sample of the others. The call rests on the fitted dose curve; in most records, active means well fitted activation curve with a large enough effect; inconclusive means small, poorly fitted or top-dose-only effect; inactive means no such curve, though single readings can be large or run the other way. No potency is given beside an inconclusive call; the fits are too rough.
# Test: A quantitative high throughput screen for small molecules that induce DNA re-replication in MCF 10a normal breast cells. Further: nearly all actives have a fitted effect of over 50% in size.
# Details: MCF 10A DNA re-replication, Hoechst nuclear intensity, 48 h; series mostly up to 46.1 µM
# Potency means the concentration at half of the fitted maximal effect; tags describe the fitted curve by direction and shape.
row,SMILES,Potency
1,Cc1ccc(S(=O)(=O)N(C)C)cc1NC(=O)COC(=O)COc1ccccc1[N+](=O)[O-],"inconclusive [activator, single point]"
2,Cc1ccc(S(=O)(=O)N2CCOCC2)cc1C(=O)Nc1ccc(-c2cn3ccsc3n2)cc1,"inconclusive [activator, single point]"
3,O=C(CNC(=O)C1CCCCC1)NCCCO,"inconclusive [activator, single point]"
4,O=C(NCc1ccco1)c1cc(S(=O)(=O)N2CCCc3ccccc32)ccc1Cl,"inconclusive [activator, partial curve, poor fit]"
5,C/C(CC(=O)NC(C)(C)C)=N\NC(=O)c1ccccc1N,"inconclusive [activator, partial curve, poor fit]"
6,CC(C)(C)C(=O)N1CCC[C@H]1C(O)(c1ccccc1)c1ccccc1,inactive
7,COc1cc(C(=O)NCC(=O)N2CCN(S(=O)(=O)c3ccccc3)CC2)cc(OC)c1OC,inactive
8,Cc1ccccc1Cn1nc(C)c(NC(=O)C2c3ccccc3Oc3ccccc32)c1C,"inconclusive [activator, single point]"
9,CCOC(=O)c1c(CSc2ccc(C)cc2)oc2ccc(O)cc12,"inconclusive [activator, single point]"
10,COc1cc2nc(NC(=O)c3ccco3)sc(=O)c2cc1OC,"inconclusive [activator, single point]"
11,CCOC(=O)C1=C(C)NC(SC)=NC1c1ccc(OC)cc1 (centres undefined),inactive
12,CC(=O)NCC(=O)OCc1ccc([N+](=O)[O-])cc1,"inconclusive [activator, single point]"
13,Cc1ccc(Oc2ccccc2NC(=O)C2=COCCO2)cc1,inactive
14,OCCNCc1cc(Br)ccc1OCc1ccccc1Cl,"inconclusive [activator, full curve, poor fit]"
15,CCN(CC)c1ccc(S(=O)(=O)N2CCOCC2)cc1NC(=O)CN1CCc2ccccc2C1,inactive
16,CC(C)c1ccccc1OCC(O)CN(CC(O)COc1cccc2ccccc12)C(C)C (centres undefined),"inconclusive [activator, single point]"
17,O=C(CSc1nnc(-c2ccco2)c(-c2ccco2)n1)Nc1ccccc1,inactive
18,O=c1[nH]c(=O)n(Cc2ccccc2)c2nc(-c3ccco3)cc(C(F)(F)F)c12,"inconclusive [activator, single point]"
19,Cn1ccnc1C1CCCCN1Cc1nc(-c2ccc3c(c2)OCO3)no1 (centres undefined),inactive
20,O=C(O)C1Nc2c(C(F)(F)F)ccc(Cl)c2C2C=CCC12 (centres undefined),"inconclusive [activator, partial curve, poor fit]"
21,CCOc1ccc(CC(=O)NC2CCN(Cc3ccccc3)CC2)cc1,"inconclusive [activator, single point]"
22,CC(C)=CCc1c2c(c3occ(-c4ccc(O)c(O)c4)c(=O)c3c1O)C=CC(C)(C)O2,active: 9.2 µM

row,SMILES,Potency
1,CC(C)(C)c1nnc2sc(SCC(=O)NCc3ccco3)nn2c1=O,"inconclusive [activator, single point]"
2,CCn1c(COc2cccc(OC)c2)nnc1SCC(=O)NC1CCCC1,"inconclusive [activator, single point]"
3,c1cnn(-c2nc(N3CCOCC3)nc(N3CCOCC3)n2)c1,"inconclusive [activator, full curve, poor fit]"
4,O=C(/C=C\c1cn(-c2ccccc2)nc1-c1ccccc1)Nc1nccs1,"inconclusive [activator, single point]"
5,Cc1ccc(Cn2c(SCc3cccnc3)nc3c2c(=O)n(C)c(=O)n3C)cc1,"inconclusive [activator, single point]"
6,O=C(Nc1cccnc1)c1cc(-c2cccc(Br)c2)nc2ccccc12,"inconclusive [activator, single point]"
7,COc1ccc(CCNC(=O)C2CCN(C(=O)c3ccc(Br)cc3)CC2)cc1OC,inactive
8,Cc1nonc1NCn1nnc2ccccc21,"inconclusive [activator, full curve, poor fit]"
9,Cc1ccc(C(=O)N/N=C/C=C/c2ccccc2)cc1,"inconclusive [activator, single point]"
10,O=C(NCc1ccccc1)C(c1cccs1)N(Cc1cccs1)C(=O)c1cnccn1 (centres undefined),"inconclusive [activator, partial curve, poor fit]"
11,COc1cc(C2C3=C(CC(C)(C)CC3=O)NC3=C2C(=O)c2ccccc23)ccc1O (centres undefined),inactive
12,Cc1ccccc1OCC(=O)N(CC(C)C)c1c(N)n(CC(C)C)c(=O)[nH]c1=O,inactive
13,CCc1cccc(CC)c1-n1c(SCC(=O)N2CCCc3ccccc32)nc(O)cc1=O,inactive
14,COCCNC(=O)Cn1nc(Cc2ccncc2)c2ccccc2c1=O,inactive
15,Cc1ccc(N=Cc2nc(-c3ccc(C)cc3)oc2O)cc1,active: 6.51 µM
16,CCOc1ccc(CNC(=O)C2CCN(c3nn4c(=O)cc(C)nc4s3)CC2)cc1,inactive
17,CC1=CC(C)(C)N2C(=O)C3(N=C(N)NC(Nc4ccccc4)=N3)c3cc(C)cc1c32 (centres undefined),"inconclusive [activator, single point]"
18,O=C(c1ccc([N+](=O)[O-])o1)N1CCN(c2nc3ccc(F)cc3s2)CC1,"inconclusive [activator, single point]"
19,CC1=NOC(=O)/C1=C\c1ccc(-c2cc(Cl)ccc2Cl)o1,"inconclusive [activator, partial curve, poor fit]"
20,Cc1ccc(NC(=S)NNC(=S)Nc2cccc(C(F)(F)F)c2)cc1,inactive
21,COC(=O)c1c(NC(=O)CN2CCC3(O)CCCCC3C2c2cc(OC)ccc2OC)sc(C)c1C (centres undefined),"inconclusive [activator, full curve]"
22,CC(C)(C)c1ccccc1OCCCCCNCCO,"inconclusive [activator, partial curve]"

# — PubChem BioAssay AID624296 (National Center for Advancing Translational Sciences (NCATS), 2012)
